# Test results taken from the supplement of paper PMC11417369.
# ± gives the standard deviation of the averaged measurements. Some of the results follow.
# Tested on: PfAP2-LT AP2 domain (GST-tagged)
# Experiment: gcPBM binding intensity (ln(normalized median fluorescence intensity)); higher = stronger DNA binding
# Outline: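 An Agilent 4 × 180k array carrying primer-extended double-stranded 36-bp intergenic genomic probes and negative controls received GST-tagged P. falciparum DNA-binding domains expressed in E. coli, about 25 μg on average, for 1 h. The binding buffer contained 1× PBS, 1% milk, 0.2 mg/ml BSA, 0.5% salmon testes DNA and 0.03% Triton X-100. Binding intensity is the top Masliner-normalised natural-log median intensity across replicate spots of either probe orientation, read after Alexa488 anti-GST antibody staining and a 488 nm scan.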
row,Sequence,gcPBM binding intensity (ln)
1,AAAAAGAATATAAGTAGTACAGTGCATATAATAATT [XGTACX_site617],9.2 ± 0.49
2,TTTTACTCTTAAAATAATAAAAAATATTCACATTTA [CACACA_negctrl_site1508],8.06 ± 0.62
3,TATAATTTTTTTAATACACACAAATATTTATATATA [CACACA_site3042],8.46 ± 0.4
4,AATTAATGTTTTGTCACACAGTATGATTATATATAT [CACACA_site6143],8.89 ± 0.43
5,TATATATACATATACGCATGTAAATTCAAAAGTAAA [TGCATGCA_site956],8.79 ± 0.35
6,AAGAGAAATGGGCACACACACACATATTATATATAT [CACACA_site1531],9.95 ± 0.36
7,TTCTCCATCAGATACTGTACATAATATATATAATAT [XGTACX_site8827],8.86 ± 0.41
8,TGTATAACCTGTGTTACACACATTAGAATTTATATA [CACACA_site6393],8.83 ± 0.31
9,GCATCATTTATTTGCACACCTATTATATACTTTTTA [CACACA_site2098],9.12 ± 0.46
10,TATATAAAGATATATACACACAAAAAAAAAAAAAAA [CACACA_site6778],8.81 ± 0.57
11,TACATAAACTTTATAACACACACTTATATATATATA [CACACA_site1106],9.09 ± 0.28
12,AATAATAACAAATGAACACACATATATATGAGCAAA [CACACA_site2121],9.13 ± 0.41
13,TATAAAAATATATATATATATATATATATATATATA [TGCATGCA_negctrl_site541],9.65 ± 0.16
14,TTGATATAAAAAGAAAGTACTTTATAGATGTTTATT [XGTACX_site8144],8.65 ± 0.51
15,TTCTACGTTTTAAAAAAAAAAAAAAAAAAAAAAAAA [XGTACX_negctrl_site6],7.92 ± 0.38
16,ATACATATCTATAATACACACATAAATGTAACATTT [CACACA_site7621],9.1 ± 0.36
17,AATGTATTATGTAATAGTACGTATAATATCTTATTT [XGTACX_site3],8.77 ± 0.38
18,ATTATATATATTGGAGTGCATATATAGTATTTTATA,8.67 ± 0.38
19,ACATATTATAGGAATACACACAAAAACTTATCGGTA [CACACA_site7587],9.16 ± 0.4
20,ATAGAAATCTATTGTGATTATTATTTTATTTTTAGT [XGTACX_negctrl_site605],8.52 ± 0.45
21,TGAAGATAAAAATATGCACACATATATATATATATA [CACACA_site8027],9.85 ± 0.3
22,CATAAAAATGAACATACACACATATATTTATTTATA [CACACA_site7222],8.99 ± 0.47

row,Sequence,gcPBM binding intensity (ln)
1,AATATAATCTTTCAAAAGAAAAAGACTTCATGAAAA [CACACA_negctrl_site1331],8.45 ± 0.41
2,ATATACGCATTAATAACACACAATATGATAACAAAT [CACACA_site3623],9.18 ± 0.38
3,AAAATGTATGGAATGCTCTTTTTTAAGTATTATATA [GTGCAC_negctrl_site175],8.51 ± 0.42
4,TATTTTAATATTTGTAGTACAGATTGAAATGACGAA [XGTACX_site4805],8.51 ± 0.45
5,TTTATTTATTATTAAAGTACTAAAATATATTATTAT [XGTACX_site4887],8.28 ± 0.55
6,ATACGTATTTTCTTTTGTACATATATATAAAATATT [XGTACX_site2675],8.79 ± 0.34
7,TATATTTATTAGTTTCGTACGTACAAAGTTATTTTT [XGTACX_site8847],8.84 ± 0.42
8,AATATTGCACCATTTTGTACATAATATATTCAAATA [XGTACX_site475],8.75 ± 0.44
9,ACAAAATTGATATATGCACACATATATATATTAAAT [CACACA_site8152],9.1 ± 0.4
10,GTAGGTTTATATTGTAGTACATACAAACGTTAACAA [XGTACX_site5476],8.89 ± 0.31
11,TATTTTGTTCTTTCCACACACAAATACCTATCTTGT [CACACA_site7833],9.49 ± 0.4
12,GCTATTTATTTATATTGTACTTTTTTTTTTTTTTTT [XGTACX_site3624],8.78 ± 0.63
13,TTTTTTTTTTGATGTTGTACATATATATTATATAAT [XGTACX_site2765],8.69 ± 0.36
14,TTTTTTTTTGGGGGTGCATGCAAGACATATATTTAA [TGCATGCA_site228],9.07 ± 0.085
15,CATACATATATATATACACACATACATATATATACA [CACACA_site8165],9.2 ± 0.3
16,ATTCGTGAACTAGCCAAACACACGAAAAAAAAAAAA [CACACA_site3342],8.86 ± 0.45
17,TTTTATTGATTATTCATAAATATGCTATTCATCTAA [CACACA_negctrl_site1084],8.51 ± 0.49
18,ATGTAACATAGGAAATGTACATATAAATATAATTTA [XGTACX_site6452],8.93 ± 0.45
19,CACACAATGGCTAGCTGTACATAATATATATCTACA [XGTACX_site4691],8.88 ± 0.31
20,TAAAAACAAAAATGTTGTACATAATATAAAACAATT [XGTACX_site6380],8.74 ± 0.38
21,TATATAAATATACAAACACACATACAAACATATATA [CACACA_site4754],9.29 ± 0.34
22,GAAAATAAAATAAATGCATGTAAATTTAATGTAATG [TGCATGCA_site996],9.01 ± 0.52
